Results on 30 compounds are retold here after PubChem BioAssay AID1745853 (National Center for Advancing Translational Sciences (NCATS), 2022).

Test in all cases: Primary Screen for Target Class Profiling of Small Molecule Inhibitors of Methyltransferases
The target of test [1] is Glycine N-methyltransferase (Homo sapiens) (UniProt Q14749). To be noted: purified enzyme, MTase-Glo SAH luminescence; measured here: GNMT inhibition; at 40 µM; stronger effect = lower value. In outline: (§1)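 Each enzyme was assayed with SAM and its substrate. SAH formation detected by MTase-Glo luminescence; single-point 40 uM screen[…].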
Test [2] concerns the target Guanidinoacetate N-methyltransferase (Homo sapiens) (UniProt Q14353). To be noted: purified enzyme, MTase-Glo SAH luminescence; measured here: GAMT inhibition; at 40 µM; stronger effect = lower value. In outline: as §1
Test [3] deals with Histamine N-methyltransferase (Homo sapiens) (UniProt P50135). To be noted: purified enzyme, MTase-Glo SAH luminescence; measured here: HNMT inhibition; at 40 µM; stronger effect = lower value. The method, boiled down:
as §1

Test [4] has as its target Nicotinamide N-methyltransferase (Homo sapiens) (UniProt P40261). To be noted: purified enzyme, MTase-Glo SAH luminescence; measured here: NNMT inhibition; at 40 µM; stronger effect = lower value. The method, boiled down: as §1
The target of test [5] is Phenylethanolamine N-methyltransferase (Homo sapiens) (UniProt P11086). The following applies: purified enzyme, MTase-Glo SAH luminescence; measured here: PNMT inhibition; at 40 µM; stronger effect = lower value. In outline: as §1

The other results are listed elsewhere or left out. These are further read-outs of the screen, such as a control signal, another cell line or another target. No call is given for them.
% is set by controls: 0 for no effect and ±100 for the full control effect.

As to `CC12CC(c3ccoc3)OC(=O)C1CCC1(C)C2CCC(O)C1(C)O` (centres undefined), the activity change, negative = inhibition was 0% in test [1]; -3.39% in test [2]; -5.06% in test [3]; -15.7% in test [4]; -2.31% in test [5].

As to `COc1ccccc1CNC(=O)C1(C)Cn2c(cc3ccccc32)C(=O)N1CCc1ccc(SC)cc1` (centres undefined), the activity change, negative = inhibition is 2.15% in test [1]; 0% in test [2]; 5.18% in test [3]; 6.63% in test [4]; -2.19% in test [5].

`COc1ccc(Cc2ccc(NC(N)=O)cc2)cc1-c1cccc(Cl)c1`: the activity change, negative = inhibition is 2.29% in test [1]; 8.15% in test [2]; 1.87% in test [3]; 2.67% in test [4]; 9.11% in test [5].

Take `C[S+](=O)([O-])N1Cc2ccccc2CC2(CCCN(Cc3ccccn3)C2)C1` (centres undefined): the activity change, negative = inhibition in test [1] is -5.14%; in test [2] it was -3.84%; in test [3], -2.6%; in test [4] it was -8.45%; in test [5], -2.15%.

For `C[C@H]1[C@@H]2[C@@H](O)C([C@H](C)C(=O)NC3CCCCC3)CC[C@@]2(C)CC[C@@H]1NC(=O)C1CCCCC1` (some centres undefined), the activity change, negative = inhibition is -2.47% in test [1]; -12.4% in test [2]; -2.9% in test [3]; -15% in test [4]; -27% in test [5].

With `COc1cccc(Nc2nc3c(S(=O)(=O)c4ccc(C)cc4)nnn3c3ccccc23)c1`, the activity change, negative = inhibition in test [1] is 2.59%; in test [2], 1.14%; in test [3], 8.49%; in test [4] it was 8.35%; in test [5], 1.54%.

Take `CCC1CCCCN1CCCN1C(=O)c2cc3sccc3n2CC1(C)C(=O)NC1CCCCCC1` (centres undefined): the activity change, negative = inhibition was 4.42% in test [1]; 1.19% in test [2]; -9.12% in test [3]; -5.87% in test [4]; 3.59% in test [5].

`Cc1nc(C)c(C(=O)N2CCCC(COc3ccccc3C(=O)N3CCCC3)C2)s1` (centres undefined): the activity change, negative = inhibition was -0.649% in test [1]; 2.33% in test [2]; 1.16% in test [3]; -6.26% in test [4]; -11.7% in test [5].

Regarding `CN(C)S(=O)(=O)N1CCc2nn(C)c(=O)n2CC1`, the activity change, negative = inhibition in test [1] is -6.82%; in test [2], -8.14%; in test [3], -3.9%; in test [4], -8.61%; in test [5], 1.41%.

Take `COc1ccc(CN(C)C2CCCN(CCc3ccccc3)C2)c(OC)c1OC` (centres undefined): the activity change, negative = inhibition in test [1] was -0.927%; in test [2], -7.85%; in test [3], -3.11%; in test [4], -5.81%; in test [5] it was -2.02%.

For the compound `C=C1C(=O)O[C@H]2[C@H]1[C@@H](OC(=O)C(C)CO)C[C@@]1(C)[C@H](O)CCC(=O)[C@H]21` (some centres undefined), the activity change, negative = inhibition in test [1] is 0%; in test [2], -1.54%; in test [3], 2.63%; in test [4], -12.8%; in test [5], 3.15%.

As for `O=C1CC2(CCN(C(=O)c3ccccn3)C2)Nc2ccccc2N1` (centres undefined), the activity change, negative = inhibition in test [1] is -2.23%; in test [2] it was -11.4%; in test [3], 0.096%; in test [4], -18.7%; in test [5], -5.43%.

With `CCC1c2ccc(C)n2CCN1C(=O)Nc1cccc(Cl)c1C` (centres undefined), the activity change, negative = inhibition in test [1] is -1.75%; in test [2], 4.75%; in test [3], -2.23%; in test [4] it was -6.99%; in test [5], -4.49%.

For the compound `Cn1c(CNC(=O)CC2CCOC3(CCN(S(C)(=O)=O)CC3)C2)nc2ccccc21` (centres undefined), the activity change, negative = inhibition is -3.38% in test [1]; -3.4% in test [2]; -2.78% in test [3]; -7.56% in test [4]; -2.7% in test [5].

For the compound `COc1ccc2c(c1)CCC1C2CC[C@@]2(C)C1CC[C@@H]2NCCCCCCN1C(=O)C=CC1=O` (some centres undefined), the activity change, negative = inhibition is 0.052% in test [1]; 8.77% in test [2]; 3.9% in test [3]; -1.1% in test [4]; 7.41% in test [5].

With `NCC(=O)Nc1ccc(-n2nc(C(F)(F)F)cc2-c2ccc3c(ccc4ccccc43)c2)cc1`, the activity change, negative = inhibition was 5.7% in test [1]; 7.07% in test [2]; 10.3% in test [3]; -16% in test [4]; 6.22% in test [5].

`CC(C)OCCCN1C(=O)c2cc3ccccc3n2CC1(C)C(=O)NC1CCCCC1` (centres undefined): the activity change, negative = inhibition in test [1] was -0.349%; in test [2], 1.2%; in test [3], 3.73%; in test [4], 6.97%; in test [5], 1.38%.

Take `CCNC(=O)[C@@H]1C[C@H](NC(=O)c2ccc(=O)n(C)c2)CN1Cc1ccoc1`: the activity change, negative = inhibition is -3.74% in test [1]; -3.34% in test [2]; 0.169% in test [3]; -3.7% in test [4]; -1.12% in test [5].

In the case of `CCC(C)NC(=O)c1ccc2c(=O)n(CC(C)C)c3nn(CC(=O)Nc4ccccc4)c(=O)n3c2c1` (centres undefined), the activity change, negative = inhibition in test [1] came out at 3.6%; in test [2], 0%; in test [3] it was 6.13%; in test [4], 1.26%; in test [5] it was 5.07%.

Take `Cc1ccccc1N1C(=O)c2cc3sccc3n2CC1(C)C(=O)NC1CCC(C)CC1` (centres undefined): the activity change, negative = inhibition in test [1] is 1.07%; in test [2] it was 0%; in test [3] it was 2.1%; in test [4], 1.02%; in test [5], 1.55%.

`Cn1nc2n(Cc3ccccc3)c(=O)c3ccc(C(=O)NC4CCCCC4)cc3n2c1=O`: the activity change, negative = inhibition in test [1] was -4.91%; in test [2], -1.45%; in test [3], 2.23%; in test [4] it was -11.8%; in test [5], -6.82%.

Turning to `Cc1noc2c(NCCc3ccccn3)cc(-c3ccccn3)nc12`, the activity change, negative = inhibition in test [1] is -32.8%; in test [2] it was -11.8%; in test [3], -13.4%; in test [4], -26.7%; in test [5] it was -27.2%.

With `Cn1c(=O)c2[nH]c(C3CCCC3)nc2n(C)c1=O`, the activity change, negative = inhibition is -12.2% in test [1]; -1.61% in test [2]; -3.06% in test [3]; -13.3% in test [4]; -3.71% in test [5].

Turning to `O=C(O)c1cc2c(s1)CN(C1CCCC1)C2`, the activity change, negative = inhibition in test [1] is -0.246%; in test [2], -0.411%; in test [3] it was 2.39%; in test [4], -2.49%; in test [5], 10.8%.

On to `CCOCCCNc1nc2c(S(=O)(=O)c3ccc(CC)cc3)nnn2c2ccc(Cl)cc12`, for which the activity change, negative = inhibition in test [1] was -10.1%; in test [2], 0%; in test [3], -0.691%; in test [4], -3.72%; in test [5], -2.86%.

For `Nc1nc(=O)n([C@H]2C[C@H](O)[C@@H](CO)O2)cc1F`, the activity change, negative = inhibition was 11.7% in test [1], 16.4% in test [3], -8.29% in test [4] and -11.8% in test [5].

For the compound `CNC(=O)c1ccc(-c2cnc3ncc(Cc4ccc5ncccc5c4)n3n2)cc1F`, the activity change, negative = inhibition in test [1] is -30.8%; in test [2], -0.083%; in test [3] it was -12.1%; in test [4], -27.7%; in test [5] it was -11.9%.

Take `Cc1ccc(N2C(=O)CSc3c(c4ccccc4n3C)C2C(=O)NCCC(C)C)cc1C` (centres undefined): the activity change, negative = inhibition was 0.111% in test [1]; 0.814% in test [2]; -3.6% in test [3]; -6.68% in test [4]; -3.7% in test [5].

With `CCC(C)NC(=O)c1ccc2c(=O)n(CCC(C)C)c3nn(C)c(=O)n3c2c1` (centres undefined), the activity change, negative = inhibition in test [1] was -6.11%; in test [2], 0%; in test [3] it was 5.27%; in test [4] it was -6%; in test [5] it was -8.42%.

For `CC1(C(=O)NC2CCCC2)Cn2c(nc3ccccc32)C(=O)N1CCc1ccccc1` (centres undefined), the activity change, negative = inhibition in test [1] is -1.3%; in test [2] it was 0%; in test [3], -0.59%; in test [4], -8.78%; in test [5] it was -4.29%.
